No constants are given. Whether binding was seen depends on the method and setting. In cells and extracts the contact can be indirect. Some results given as binding are weak or reduced against the parent protein; the word gives no strength.
What was measured:
Assay in all cases: co-IP; anti-Myc (antibody or Myc-trap) immunoprecipitates of HEK293 lysates with overexpressed Myc-tagged CBL variants, blotted for the partner; IP lysis buffer 50 mM Tris-HCl pH 7.5, 150 mM NaCl, 1 mM EDTA, 1% IGEPAL CA-630, 4 °C; cells without EGF or with 50 ng/ml EGF for 5 min; in some panels cells treated with EGFR inhibitors (AG18, AG1478, gefitinib, erlotinib)
[1] = target: Myc-tagged CBL-Y371S (UniProt P22681)
[2] = target: Myc-tagged CBL-R420Q (UniProt P22681)
[3] = target: Myc-tagged CBL-Y371E (UniProt P22681)
[4] = target: Myc-tagged WT-CBL (UniProt P22681)
[5] = target: Myc-tagged CBL-R420L (UniProt P22681)
[6] = target: Myc-tagged CBL-Y371D (UniProt P22681)
[7] = target: Myc-tagged CBL-Y371S/Y3F (UniProt P22681)
[8] = target: Myc-tagged CBL-Y371H (UniProt P22681)
[9] = target: Myc-tagged CBL-Y371C (UniProt P22681)
[10] = target: Myc-tagged CBL-Y371A (UniProt P22681)
[11] = target: Myc-tagged CBL-Y371F (UniProt P22681)
[12] = target: Myc-tagged CBL-Y371S/G306E (UniProt P22681)
[13] = target: Myc-tagged CBL-70Z (UniProt P22681)

Substance: CIN85 (CBL-interacting protein of 85 kDa) (from UniProt Q96B97 1-665)
- binding [1]: binds
- binding [2]: binds
- binding [3]: binds
- binding [4]: binds
- binding [5]: binds
- binding [6]: binds
- binding [7]: no binding
- binding [8]: binds
- binding [9]: binds
- binding [10]: binds
- binding [11]: binds
- binding [12]: no binding
- binding [13]: binds

— article PMC7994203
